Results published in PubChem BioAssay AID624417 (National Center for Advancing Translational Sciences (NCATS), 2012).
Out of some 410,000 compounds screened, about 6,400 (1.6%) were called active. This list was built around the results that the source calls inconclusive (neither active nor inactive); the mix of calls is not that of the screen. Calls follow the shape of the dose curve; as a rule, active = well fitted inhibition curve with a large enough effect; inconclusive = small, poorly fitted or top-dose-only effect; inactive = no such curve, though single readings can be large or run the other way. Potencies of inconclusive entries are left out as doubtful fits.

target: Glucagon-like peptide 1 receptor (Homo sapiens) (UniProt P43220); experiment: qHTS of GLP-1 Receptor Inverse Agonists (Inhibition Mode); conditions: HEK293 GLP-1R CRE-luciferase, luminescence, 24 h, GLP-1R form is constitutively active; activity change, negative = inhibition: at 38.3 µM (top of the series) unless noted; also: nearly all actives have a fitted effect of over 55% in size
Procedure, shortened: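 Constitutively active GLP-1R drives a cAMP-responsive luciferase in stably transfected HEK293 cells; test compounds are added after overnight (12 h) attachment and left 24 hr, and signal loss in luminescence marks inhibition.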
% is scaled to controls: 0 for no effect and ±100 for the full control effect; potency is read from the fitted curve at half-maximal effect; tags tell the direction and shape of the fitted curve.

UniProt P43220, sequence (P43220 whole entry, looked up): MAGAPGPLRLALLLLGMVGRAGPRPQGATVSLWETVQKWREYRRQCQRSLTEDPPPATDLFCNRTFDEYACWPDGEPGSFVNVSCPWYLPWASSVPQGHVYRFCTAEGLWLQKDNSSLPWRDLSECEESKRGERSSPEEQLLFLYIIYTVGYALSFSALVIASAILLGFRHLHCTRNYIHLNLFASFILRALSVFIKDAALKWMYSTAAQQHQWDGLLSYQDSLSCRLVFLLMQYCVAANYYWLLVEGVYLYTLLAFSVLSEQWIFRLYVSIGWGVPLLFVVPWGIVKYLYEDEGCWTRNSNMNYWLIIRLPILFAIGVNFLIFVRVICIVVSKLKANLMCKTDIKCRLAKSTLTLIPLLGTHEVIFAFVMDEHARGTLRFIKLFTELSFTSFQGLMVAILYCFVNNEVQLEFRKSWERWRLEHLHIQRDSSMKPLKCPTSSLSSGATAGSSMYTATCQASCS

| Structure (SMILES) | activity change, negative = inhibition | Potency |
| --- | --- | --- |
| COc1ccc(NC(=O)N2CCc3ccccc3C2)cc1 | inactive: -5.43% | – |
| N#Cc1c(C#N)c(-c2ccccc2)n(-c2ccccc2)c1N | – | inconclusive [inhibitor, full curve, poor fit] |
| CC(CC(=O)Nc1ccc2c(c1)c(=O)n(C)n2Cc1ccc(F)cc1)c1ccccc1 (configuration not stated) | – | inconclusive [inhibitor, single point] |
| Cc1ccc(N2C(=O)CSC23C(=O)N(Cc2ccccc2F)c2ccccc23)cc1F (configuration not stated) | – | inconclusive [inhibitor, single point] |
| COc1cc(OC)cc(C(=O)NCC(=O)Nc2ccc(-c3ccccc3)cc2)c1 | – | inconclusive [inhibitor, partial curve, poor fit] |
| NC(=O)c1cc([N+](=O)[O-])ccc1NCc1ccc(O)cc1 | – | inconclusive [inhibitor, partial curve, poor fit] |
| Cc1ccc(N=C2SC(C(=O)NCCc3ccccc3)CC(=O)N2C)cc1C (configuration not stated) | – | inconclusive [inhibitor, single point] |
| CCOc1cccc(C2c3[nH]c4ccccc4c3CCN2C(=O)CSc2ccccc2)c1 (configuration not stated) | – | inconclusive [inhibitor, partial curve] |
| Cc1ccc(S(=O)(=O)N2CCN(C)CC2)c(C)c1N(C)S(=O)(=O)c1ccc(Cl)cc1 | – | inconclusive [inhibitor, partial curve, poor fit] |
| COc1ccc(/C=C2\SC(=S)N(CCCCCC(=O)Nc3cc(C)on3)C2=O)cc1OC | inactive: 9.5% | – |
| FC(F)(F)c1cc(C(F)(F)F)c2ccc(N3CCN(c4ccc(Cl)cc4)CC3)nc2n1 | inactive: 7.83% | – |
| COc1ccc(CN2C[C@@H](CO)O[C@@H](n3cnc4c(NCCO)ncnc43)C2)cc1 | inactive: -2.93% | – |
| COc1cc(NC(=O)c2ccc3oc(=O)c(S(=O)(=O)c4ccccc4)cc3c2)cc(OC)c1 | inactive: 6.75% | – |
| O=C(Nc1cccc(F)c1)c1ccccc1-c1ccccc1 | – | inconclusive [inhibitor, single point] |
| CCOc1ccc(NC(=O)Cn2c(=O)n(-c3cccc(Cl)c3)c(=O)c3c2c2cc(C)ccc2n3C)cc1 | inactive: 17.1% | – |
| COc1ccc(S(=O)(=O)Nc2cccc(-c3ccc(N4CCC(C)CC4)nn3)c2)c(OC)c1 | – | inconclusive [inhibitor, partial curve, poor fit] |
| COC(=O)CCN(C(=O)c1ccc(N2CCCCC2)c([N+](=O)[O-])c1)c1ccccn1 | – | inconclusive [inhibitor, single point] |
| COC(=O)c1cc2oc3ccccc3c2n1CC(=O)Nc1ccc(C)c(F)c1 | inactive: 1.03% | – |
| Cc1ccc(C(NC(=O)NN2CCN(C)CC2)C(Cl)Cl)cc1F (configuration not stated) | – | inconclusive [inhibitor, partial curve, poor fit] |
| C=CCOc1c(Br)cc(/C=N/O)cc1OCC | – | inconclusive [inhibitor, partial curve] |
| O=C(c1ccc(F)cc1)C1CCN(C(=S)NCC2CCCO2)CC1 (configuration not stated) | – | inconclusive [inhibitor, full curve] |
| Cc1ccccc1CSc1ncnc2ccccc12 | – | inconclusive [inhibitor, single point] |
| COc1ccccc1C(=O)NNC(=O)c1nn(Cc2ccccc2)c(=O)c2ccccc12 | – | inconclusive [inhibitor, partial curve, poor fit] |

| Structure (SMILES) | activity change, negative = inhibition | Potency |
| --- | --- | --- |
| O=C(Nc1ccc(F)cc1)c1cccc(N2C(=O)C3C4C=CC(C5CC45)C3C2=O)c1 (configuration not stated) | – | inconclusive [inhibitor, partial curve] |
| CCN(CC(=O)Nc1ccc(NC(C)=O)cc1)C(=O)c1ccc(NC2CC2)c([N+](=O)[O-])c1 | inactive: 5.13% | – |
| CCOCCCN(C)C1CCN(C(=O)c2oc3ccccc3c2NC(=O)Cc2ccc([N+](=O)[O-])cc2)CC1 | – | inconclusive [inhibitor, partial curve, poor fit] |
| CCCC(=O)Nc1cccc(NC(=O)c2ccc([N+](=O)[O-])cc2Cl)c1 | inactive: -16.7% | – |
| CC(C)N1CCC(N2CCN(Cc3ccc(-c4ccccc4Cl)o3)CC2CCO)CC1 (configuration not stated) | – | inconclusive [inhibitor, full curve, poor fit] |
| O=S(=O)(NC1c2cccc3cccc(c23)C1N1CCNCC1)c1ccccc1 (configuration not stated) | – | active: 10 µM |
| COc1ccc(C)cc1Nc1n[n+](-c2ccccc2)c(-c2cc(OC)c(OC)cc2Br)s1 | – | inconclusive [inhibitor, single point] |
| Cc1ccccc1NC(=O)CSc1nc2ccccc2o1 | inactive: -4.63% | – |
| CCc1c(C(=O)NC2CCCc3ccccc32)[nH]c(C)c1C(C)=O (configuration not stated) | – | inconclusive [inhibitor, full curve] |
| Cc1ccccc1S(=O)(=O)c1c(C)cc(C)n(C(C)C)c1=O | – | inconclusive [inhibitor, partial curve, poor fit] |
| COc1cc(CNC(=O)c2ccc3c(c2)N(C)C(=O)C2CCCCN32)cc(OC)c1OC (configuration not stated) | inactive: 34.1% | – |
| N#CC1c2ccccc2C=CN1C(=O)N(c1ccccc1)c1ccccc1 (configuration not stated) | – | inconclusive [inhibitor, full curve, poor fit] |
| CC(=O)N1CCc2c(sc3c2c(=O)n(-c2ccccc2)c(=O)n3CC(=O)Nc2ccccc2)C1 | inactive: 0.0918% | – |
| O=C(Nc1ccc2ccccc2c1)[C@@H]1C[C@H]1[C@@H](NP(=O)(c1ccccc1)c1ccccc1)c1ccccc1 | – | inconclusive [inhibitor, partial curve, poor fit] |
| Clc1cccc(CNc2ccn3nc(-c4ccc(OCc5ccccc5)cc4)cc3n2)c1 | – | inconclusive [inhibitor, full curve, poor fit] |
| O=C(NCc1ccc(Cl)c(Cl)c1)c1cc(C2CCCCN2C(=O)CCc2ccccc2)on1 (configuration not stated) | – | inconclusive [inhibitor, single point] |
| OC(COc1ccc(F)cc1)CN1CCN(c2ccccc2F)CC1 (configuration not stated) | – | inconclusive [inhibitor, single point] |
| CC(C)(C)NC(=O)c1cc([N+](=O)[O-])ccc1N1CCCCC1 | – | inconclusive [inhibitor, partial curve, poor fit] |
| COC(=O)C1CCN(C(=O)COC(=O)Cc2c[nH]c3ccccc23)CC1 | inactive: 0.72% | – |
| O=C(C(=Cc1ccc(F)cc1)C(=O)c1ccccc1)c1ccccc1 | – | inconclusive [inhibitor, single point] |
| COc1ccc2c(c1)CC/C(=C/c1ccccn1)C2=O | inactive: -14% | – |
| Cc1cccc(NC(=O)c2ccc3c(c2)OCCO3)c1 | – | active: 11.2 µM |
| Cc1ccc(C2=C(CC(=O)O)C(=O)CC2)cc1 | inactive: 9.11% | – |

| Structure (SMILES) | activity change, negative = inhibition | Potency |
| --- | --- | --- |
| O=C(CSc1nnc(Cn2nnc3ccccc32)o1)N(Cc1ccc(F)cc1)c1ccccc1 | – | active: 11.2 µM |
| Cc1c(Br)c([N+](=O)[O-])nn1CC(=O)NCCc1ccc(Cl)cc1 | – | inconclusive [inhibitor, partial curve, poor fit] |
| CCOc1ccc(C(=O)NCC(=O)NCCOc2ccc(C)cc2)cc1 | inactive: -27.2% | – |
| COc1ccccc1C(=O)Nc1ccc(Oc2nnc(-c3ccc(C)cc3)c3ccccc23)cc1 | – | inconclusive [inhibitor, full curve, poor fit] |
| CCOc1ccc(NC(=O)c2cc(S(=O)(=O)N3CCCCCC3)cn2C)cc1 | inactive: 8.74% | – |
| CON(C)S(=O)(=O)c1cccc(C(=O)NC2CCSc3ccccc32)c1 (configuration not stated) | – | inconclusive [inhibitor, single point] |
| CCOC(=O)C1(Cc2ccc(OC)cc2)CCN(C(=O)c2cc3ccccc3[nH]2)CC1 | – | inconclusive [inhibitor, single point] |
| CCCCCn1c(=O)[nH]c2cc(C(=O)NCCCN(C)Cc3ccccc3)ccc2c1=O | – | inconclusive [inhibitor, partial curve, poor fit] |
| CN1CCN(c2ccc(CNS(=O)(=O)c3ccccc3)cc2)CC1 | – | inconclusive [inhibitor, full curve, poor fit] |
| Cc1csc(NC(=O)NCC2CCCC(CNC(=O)Nc3nc(C)cs3)C2)n1 (configuration not stated) | – | inconclusive [inhibitor, single point] |
| CCOc1ccc(NC(=O)CN(C)C(=O)CCCn2c(=O)oc3ccccc32)cc1OCC | inactive: 19.4% | – |
| COc1ccc(CNC2CCCCC2)cc1 | inactive: 9.28% | – |
| O=c1n(Cc2ccccc2F)c2ccccc2n1Cc1ccccc1F | – | inconclusive [inhibitor, partial curve, poor fit] |
| COc1ccc(/C=C/C(=O)Oc2ccc(C)cc2)cc1 | inactive: 34.7% | – |
| CN(C)CCN(C(=O)CCS(=O)(=O)c1ccccc1)c1nc2cc3c(cc2s1)OCO3 | – | inconclusive [inhibitor, single point] |
| CCOCCc1nnc(NC(=O)Cc2ccccc2)s1 | inactive: -2.61% | – |
| CN(Cc1ccco1)C(=O)c1ccc2c(c1)N(Cc1ccccc1F)C(=O)c1ccccc1S2 | – | inconclusive [inhibitor, single point] |
| COCc1cc(C)nc(N2CCN(c3ccccc3)CC2)c1C#N | inactive: 4.5% | – |
| Cc1cc(/C=C2/SC(=S)N(c3cccc(C(F)(F)F)c3)C2=O)c(C)n1-c1cccnc1 | – | active: 5.01 µM |
| CCC(c1nnnn1-c1c(C)cccc1C)N1CCN(c2ccc(C(F)(F)F)cc2[N+](=O)[O-])CC1 (configuration not stated) | – | inconclusive [inhibitor, full curve, poor fit] |
| Cc1nc2cc(NC(=O)c3ccc(N4C(=O)CCC4=O)cc3)ccc2s1 | inactive: 7.01% | – |
